The text below walks through data of patent US20240108766A1 (Bayer, published 2024).

This assay deals with T1, human LRRC15 expressed on cells (human, UniProt Q8TF66 22-581).
T1 sequence (looked up): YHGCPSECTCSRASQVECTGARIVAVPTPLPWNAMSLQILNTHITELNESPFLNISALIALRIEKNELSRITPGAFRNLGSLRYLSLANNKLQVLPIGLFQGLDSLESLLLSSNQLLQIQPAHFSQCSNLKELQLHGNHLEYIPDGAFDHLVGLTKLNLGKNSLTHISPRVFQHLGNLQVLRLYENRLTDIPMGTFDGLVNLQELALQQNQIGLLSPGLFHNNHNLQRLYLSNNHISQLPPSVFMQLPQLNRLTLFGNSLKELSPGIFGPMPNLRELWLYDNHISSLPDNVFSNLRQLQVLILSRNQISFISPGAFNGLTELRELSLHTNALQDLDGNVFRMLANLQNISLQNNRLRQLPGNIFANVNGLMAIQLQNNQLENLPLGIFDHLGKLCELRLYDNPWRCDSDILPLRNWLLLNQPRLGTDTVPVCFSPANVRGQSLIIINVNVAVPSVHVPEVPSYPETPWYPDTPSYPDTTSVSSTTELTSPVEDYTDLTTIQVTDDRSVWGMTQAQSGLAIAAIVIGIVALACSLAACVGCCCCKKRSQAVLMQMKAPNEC
Kind of assay: cell-based or functional assay.

B1: LRRC15-TTC (TPP-12942) (other)
heavy: EVQLVQSGAEVKKPGASVKVSCKASGYKFSSYWIEWVKQAPGQGLEWIGEILPGSDTTNYNEKFKDRATFTSDTSINTAYMELSRLRSDDTAVYYCARDRGNYRAWFGYWGQGTLVTVSS[human IgG1 constant region omitted]
light: DIQMTQSPSSLSASVGDRVTITCRASQDISNYLNWYQQKPGGAVKFLIYYTSRLHSGVPSRFSGSGSGTDYTLTISSLQPEDFATYFCQQGEALPWTFGGGTKVEIKRTVAAPSVFIFPPSDEQLKSGTASVVCLLNNFYPREAKVQWKVDNALQSGNSQESVTEQDSKDSTYSLSSTLTLSKADYEKHKVYACEVTHQGLSSPVTKSFNRGEC
modifications: as for the heavy chain; sites not stated; 3,2-HOPO chelator coupled by amide bonds (NHS/EDC; lysine ε-amino groups), complexed with thorium-227; sites not stated
As to B1, the “IC50 (kBq/ml), cell viability, Cell Titer Glo, HT29-LRRC15” value is 0.08 kBq/ml and the “IC50 (kBq/ml), cell viability, Cell Titer Glo, Saos-2” value came to 0.35 kBq/ml.

B2: LRRC15-TTC (TPP-14389) (other)
heavy: EVQLLESGGGLVQPGGSLRLSCAASGFTFSGYMMSWVRQAPGKGLEWVSGIYPSPGYTYYADSVKGRFTISRDNSKNTLYLQMNSLRAEDTAVYYCAREKASDLFGSYSEALDYWGQGTLVTVSS[human IgG1 constant region omitted]
light: DIQMTQSPDSLSASVGDRVTITCRASQDVGSWLAWYQQKPGKAPKLLIFAASSLESGIPSRFSGSGSGTDFTLTISSLQPEDFATYYCQQANGFPLTFGGGTKVEIKRTVAAPSVFIFPPSDEQLKSGTASVVCLLNNFYPREAKVQWKVDNALQSGNSQESVTEQDSKDSTYSLSSTLTLSKADYEKHKVYACEVTHQGLSSPVTKSFNRGEC
modifications: as for the heavy chain; sites not stated; 3,2-HOPO chelator coupled by amide bonds (NHS/EDC; lysine ε-amino groups), complexed with thorium-227; sites not stated
Regarding B2, the “IC50 (kBq/ml), cell viability, Cell Titer Glo, HT29-LRRC15” value turned out to be 0.09 kBq/ml and the “IC50 (kBq/ml), cell viability, Cell Titer Glo, Saos-2” value turned out to be 0.33 kBq/ml.
